Over roughly 33,000 sequences, “E-score (-0.5 to 0.5)” has its median near -0.017; the highest 2% begin near 0.3. This is one part of the list.
What follows are sequences tested against T1, Sut1 (UniProt P53032) (assay: PBM E-score (8-mer binding enrichment) (E-score (-0.5 to 0.5)); higher = stronger / more preferred TF binding; most listed sequences are background and not binding sites). Conditions: protein concentration: 200 nM; construct: GST-full length.
T1 sequence: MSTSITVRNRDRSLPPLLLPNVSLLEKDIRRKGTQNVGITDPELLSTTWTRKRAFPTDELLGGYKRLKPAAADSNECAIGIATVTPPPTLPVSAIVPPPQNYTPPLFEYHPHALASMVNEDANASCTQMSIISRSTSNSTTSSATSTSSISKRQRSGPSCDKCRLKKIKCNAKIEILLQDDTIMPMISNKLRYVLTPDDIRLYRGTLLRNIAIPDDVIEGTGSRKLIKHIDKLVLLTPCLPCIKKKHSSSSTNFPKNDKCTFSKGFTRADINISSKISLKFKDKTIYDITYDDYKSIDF
Method in brief: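 For each ungapped eight-base word taken together with its reverse complement, the Universal PBM Analysis Suite assigned an E-score. Binding data came from GST-tagged yeast transcription factors, applied at about 100-200 nM, on universal all-10-mer Agilent arrays made double-stranded by primer extension. Fluorescent anti-GST marked bound protein, and scans were normalised with masliner.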

Sequence | PBM E-score
AACGTGGT | -0.0478
GATCCACC | -0.14
GAATTCTC | 0.129
AGAGCCCA | -0.243
GGCTGGTA | -0.125
CCGATTCC | 0.27
AGTTGTGC | -0.253
AGGTGCAG | -0.158
CCATCGGG | -0.0849
TAAGGAAA | 0.156
AGAGCCGG | -0.184
CGGTTCGA | 0.0239
ATTGTTAC | 0.141
AGCTTATG | 0.0211
CTGGCAAG | -0.12
CAGTAGAG | -0.159
ATTATCTC | 0.177
AAAAGACG | 0.0362
ACGTCTGC | -0.29
ACAAGTTA | 0.152
GGTGCAAC | -0.131
GAGTCGGA | 0.324

Sequence | PBM E-score
ACGCCGAG | -0.0243
AGCTCGCG | 0.124
CACGACCG | -0.276
AGGACGCG | -0.0934
ACAGCAGT | -0.0771
AGAGGGAC | -0.0886
CGTGGGTC | -0.162
AAACTCAA | 0.242
CGAAGCGA | -0.0258
ATGTTTCC | 0.0702
CCCGCCAA | -0.143
AGCCCAAA | 0.00417
GGCGCAAA | 0.0173
GCCAGAGC | -0.206
CGGGCGGC | -0.0978
CAATCTCC | 0.312
AACCCGAC | -0.0177
AAGTGACT | -0.0409
CCTGGTGA | -0.172
GAGTATAA | 0.282
TCCCTAAA | 0.148
ACGAATTA | 0.0458

Sequence | PBM E-score
AGACGGAA | 0.0433
AAAGTGAA | 0.191
ACTCCACA | 0.0516
CTACTCAC | 0.0493
ATTCGGGC | -0.0696
AACGGTTG | 0.0727
ATCGAACA | 0.00237
CTAACTCA | 0.034
CTAGATTC | -0.059
GCGTTCGA | -0.0289
ACATTTTA | 0.238
CGGATGGC | -0.0619
ACCTGAAT | 0.0949
CCCAATGC | -0.194
CCCTGGTC | -0.326
GTAATTTA | 0.221
GCGCGGAC | 0.218
CGTTTTAA | 0.124
ACCAAAGG | -0.0819
CCGTGCAA | 0.178
AGAGTAAG | 0.016
GGATGACC | -0.219

Sequence | PBM E-score
AACACTAT | 0.266
AGTGTCAC | -0.0708
CTGTCGTC | -0.0675
CTGCTGAA | 0.0148
AGGGGTCG | -0.334
GACCAGCC | -0.0653
TACAACTA | 0.118
AGCAGCAC | -0.104
ATGAAACA | 0.0677
ACTACTCT | -0.0164
GACCGAGC | -0.206
ACTGGACA | -0.153
ACGTGACA | -0.102
AGAAACCT | 0.149
GTCCGTCA | 0.253
AGCGTCTA | -0.177
ACACCGAA | 0.122
CAGCGTTC | -0.109
GCATGGAA | -0.153
AATGTATA | 0.298
GACCGACA | -0.0292
GCAATAAC | 0.0512

Sequence | PBM E-score
GCTTTATA | -0.0119
AATCGTAC | 0.135
AATAGGAC | 0.0787
ATAGTATA | 0.174
AAAATGGA | 0.183
CTTCAAAA | 0.188
CAGTCAGC | 0.0209
CATGTACG | -0.00936
GAATCGAA | 0.131
ACTCAATA | 0.25
GAGGACGA | 0.0235
ACACCTCG | -0.103
CTCCCTGC | -0.276
ATTGCACG | -0.0293
AATTAGTA | 0.272
AGTCTCTA | -0.121
CGAAGAAC | 0.115
CTCAGTTA | -0.0295
CCGGTAGC | -0.205
CTCTCTCC | -0.086
CGGTCGAG | -0.311

From the supplement of paper PMC3334620
